# Assay results: publication PMC4336329 (PLoS ONE, 2015)
# About 14,000 (4.5%) of roughly 310,000 compounds showed an effect of 50% or more. Effects have a minus sign here. Some of the results follow.
# Biological target: human ether-à-go-go-related gene (hERG) potassium channel (human, UniProt Q12809)
# Assay: primary screen, population patch clamp on CHO cells stably expressing hERG
# 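Also: peak tail current of the secondary pulse compared with the same well before compound.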
# Chain of human ether-à-go-go-related gene (hERG) potassium channel (Q12809 whole entry, looked up): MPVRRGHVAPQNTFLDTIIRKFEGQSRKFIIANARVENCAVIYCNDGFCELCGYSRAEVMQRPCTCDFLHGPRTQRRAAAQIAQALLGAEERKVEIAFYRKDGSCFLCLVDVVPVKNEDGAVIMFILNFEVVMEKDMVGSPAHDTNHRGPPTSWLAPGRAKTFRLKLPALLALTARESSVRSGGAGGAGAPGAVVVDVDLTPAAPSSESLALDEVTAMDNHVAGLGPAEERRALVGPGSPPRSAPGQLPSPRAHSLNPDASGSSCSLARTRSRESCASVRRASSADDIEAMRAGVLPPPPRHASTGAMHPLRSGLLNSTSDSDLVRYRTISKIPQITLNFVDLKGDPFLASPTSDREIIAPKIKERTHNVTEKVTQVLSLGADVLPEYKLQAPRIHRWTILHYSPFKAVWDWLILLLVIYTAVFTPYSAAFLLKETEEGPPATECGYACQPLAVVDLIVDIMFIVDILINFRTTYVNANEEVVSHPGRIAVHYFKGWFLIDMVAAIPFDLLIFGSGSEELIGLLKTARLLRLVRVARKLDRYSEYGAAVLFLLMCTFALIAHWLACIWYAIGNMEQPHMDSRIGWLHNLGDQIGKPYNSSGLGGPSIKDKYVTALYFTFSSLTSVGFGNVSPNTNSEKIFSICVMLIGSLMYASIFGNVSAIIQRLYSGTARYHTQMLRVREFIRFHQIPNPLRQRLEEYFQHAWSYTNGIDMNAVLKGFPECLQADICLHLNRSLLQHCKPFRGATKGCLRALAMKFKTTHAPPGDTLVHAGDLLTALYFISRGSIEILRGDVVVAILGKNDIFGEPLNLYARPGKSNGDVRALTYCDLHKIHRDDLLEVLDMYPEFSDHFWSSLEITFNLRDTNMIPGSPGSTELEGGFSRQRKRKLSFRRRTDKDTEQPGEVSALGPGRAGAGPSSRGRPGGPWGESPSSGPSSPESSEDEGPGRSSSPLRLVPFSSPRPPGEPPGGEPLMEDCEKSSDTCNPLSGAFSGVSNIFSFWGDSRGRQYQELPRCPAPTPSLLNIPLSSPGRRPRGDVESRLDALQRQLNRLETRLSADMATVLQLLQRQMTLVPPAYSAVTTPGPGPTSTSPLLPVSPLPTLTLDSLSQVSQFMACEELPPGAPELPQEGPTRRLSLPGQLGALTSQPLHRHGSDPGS
row,SMILES,"hERG current change (%, negative = inhibition) at 10uM [%]"
1,O=[N+]([O-])c1c(NCCO)cc(Sc2nc3ccccc3s2)c2nonc12,26
2,CCCCN1C(N)=NC[C@@H]1CCCCN,8.7
3,Cc1ccc2c(c1)NC(=O)C(CC(=O)Nc1ccc(CN3CCC(C)CC3)cc1)O2 (centres unmarked),-9.4
4,Cc1cccc(-n2cc3c(=O)n(C)c(=O)n(C)c3c2)c1,12.3
5,COC(=O)c1ccc(C2c3[nH]c4ccccc4c3C[C@H]3C(=O)N(C)CC(=O)N23)cc1 (some centres unmarked),0.396
6,Cc1noc(C)c1C(=O)Nc1nc2ccc(S(C)(=O)=O)cc2s1,2.86
7,CCN(CC)CCNC(=O)c1ccc(NC(=O)Cc2ccccc2F)cc1,-6.75
8,CCNc1oc(COc2ccccc2F)nc1C#N,7.7
9,N/C(=N\N=C/c1ccc(-c2ccc(O)c(C(=O)O)c2)o1)N[N+](=O)[O-],12.7
10,CCC(NC(=O)NCc1cccnc1)(C(F)(F)F)C(F)(F)F,5.9
11,C/C(Cl)=C\Cn1c(O)c(N=NC(N)=S)c2ccccc21,-11.2
12,COC(=O)c1ccc(NC(=S)Nc2ccc(O)cc2)cc1,22.9
13,CSc1ncccc1C(=O)Nc1ccc2nc(C)sc2c1,-0.421
14,FC(F)(F)c1nnc2ccc(-n3ccnc3)nn12,10.1
15,CCOC(=O)C1=C(C)N=c2s/c(=C\c3ccc(C(=O)O)cc3)c(=O)n2C1c1ccc(F)cc1 (centres unmarked),-45.8
16,O=C(CCS(=O)(=O)c1ccc(Br)s1)NCc1cccs1,-4.96
17,CN1CC(=O)N(CC(=O)Nc2cccc(S(=O)(=O)N3CCOCC3)c2)C1=O,14.4
18,Cc1nnsc1C(=O)NC1CCCc2c1cnn2-c1ccc(C(C)(C)C)cc1 (centres unmarked),-16.2
19,COc1ccc(-n2c(=O)c3ccccc3n(CC(=O)Nc3cccc(OC)c3)c2=O)cc1,10.3
20,Cc1cc(NC(=O)CSc2nccn2-c2ccc(Cl)cc2)no1,-3.34
21,CCc1nc(SCC(=O)Nc2ccc(F)cc2)c2c(=O)n(C)c(=O)n(C)c2n1,-20.1
22,COc1cc(OC)cc(C(=O)Nc2nnc(Cc3ccc(OC)c(OC)c3)s2)c1,16.3

row,SMILES,"hERG current change (%, negative = inhibition) at 10uM [%]"
1,COCCSc1nnc(NC(=O)CCS(=O)(=O)c2ccccc2)s1,20.7
2,COc1ccccc1N(CC(O)COc1c(C)cc(C)cc1C)S(=O)(=O)c1ccccc1 (centres unmarked),-0.161
3,CC(CNC(=O)CCCn1ncn2c(cc3occc32)c1=O)c1ccccc1 (centres unmarked),-6.77
4,COc1cc(/C=C2\C(=O)N(CCC#N)N=C2C)c(Br)cc1OC(C)C,3.15
5,COC(=O)c1ccc(Oc2ccc3nnc(C)n3n2)cc1,-1.43
6,Cc1ccc(S(=O)(=O)Nc2cc(C(F)(F)F)ccc2N2CCOCC2)cc1C,2.05
7,Cc1ccc(S(=O)(=O)Nc2c(C)nc3nc[nH]n3c2=O)c(C)c1,29.1
8,C=CCn1c(-c2cc(Cl)ccc2OC)n[nH]c1=S,6.88
9,C/C(=N\N=C1/SC(CC(=O)O)C(=O)N1c1ccccc1)c1ccc(C)cc1 (centres unmarked),21.9
10,Nc1nc(Cn2nnc(-c3ccccc3Cl)n2)nc(N2CCOCC2)n1,-54.4
11,CCOc1cc(C(=O)OCC(=O)Nc2c(C)cccc2C)ccc1OCC(=O)N1CCOCC1,4.3
12,CCN1CCN(CCc2nc3cc(NC(=O)COc4ccc(Cl)cc4)ccc3n2C)CC1,-67.6
13,CCOC(=O)C1(CC2CCCCO2)CCN(Cc2nc3ccccc3nc2C)CC1 (centres unmarked),-21.2
14,NS(=O)(=O)c1ccc(N2CCCCCC2)c([N+](=O)[O-])c1,4.9
15,CC(C)C(CCN1C(=O)CCC1=O)C1CCOC(C)(C)C1 (centres unmarked),4.36
16,COc1cc2c(cc1OC)C(c1cccc(F)c1)CC(=O)N2 (centres unmarked),-0.986
17,CC(=O)n1c(C=Nc2ccccc2)c(O)c2ccccc21,7.78
18,Cc1cc(-c2ccccc2)cc(C)[n+]1Cc1ccccc1.[O-][Cl+3]([O-])([O-])[O-],5.38
19,COC(=O)CCCC1=CC2=C(c3ccccc3)C(=O)C(C)(OC(=O)C3CCCC3)C(=O)C2=CN1CCCCO (centres unmarked),20.5
20,Nc1cc2ccccc2oc1=O,8.37
21,Cc1ccc(S(=O)(=O)N2CCCCC2)cc1NC(=O)Cn1c(=O)cnc2ccccc21,9.61
22,CCOCCCNC(=O)CN1C(=O)COc2ccc(S(=O)(=O)N3CCCCCC3)cc21,20.6
